Data taken from the supplement of paper PMC11417369.
± gives the standard deviation of the averaged measurements. The list shows a part of the results.

Tested on: PfAP2-I AP2 domain 3 (GST-tagged)
Assay: gcPBM binding intensity (ln(normalized median fluorescence intensity)); higher = stronger DNA binding
Method in brief: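 The highest Masliner-normalised natural-log median intensity across replicate spots of either probe orientation is reported as binding intensity. GST-tagged P. falciparum DNA-binding domains expressed in E. coli were applied for 1 h to an Agilent 4 × 180k array of primer-extended double-stranded 36-bp intergenic genomic probes plus negative controls, and bound protein was detected with Alexa488 anti-GST antibody and scanned at 488 nm.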

Sequence | gcPBM binding intensity (ln)
AATAAAAAAATGTCACGTACTTATTTTATTAAACCT [XGTACX_site3031] | 7.76 ± 0.49
GTATGGCGTATCATATGTACTAAAAAAAAATAAAAA [XGTACX_site5101] | 7.79 ± 0.5
TTAAATGAAAAAATATGTACGTATAATAAGAAATAT [XGTACX_site6619] | 8.28 ± 0.59
TTTTTTCTTAGTTATACATGCAAAATAAATAAATAA [TGCATGCA_site410] | 7.97 ± 0.71
TATTTTTTCTTAAACACACACATATATATATAGAAT [CACACA_site2836] | 7.88 ± 0.47
GTATGAGTCGTAGAGTGTACTCTGGAGAAAACTACA [XGTACX_site4942] | 7.64 ± 0.57
TATATATTTATTAAATGTACATAACAAAAATGGTAT [XGTACX_site3577] | 7.95 ± 0.47
ATTTATATATAATTTTGTACGAAAAAAATAAGGTAT [XGTACX_site3578] | 8.1 ± 0.6
TGCATACATAAATGTATATATTAATATATATCATAT [GTGCAC_negctrl_site252] | 7.47 ± 0.41
AAATAAAGTAAAATATGTACATAAATTAAAACACAT [XGTACX_site8539] | 8.08 ± 0.62
TATACGAAATTGTGCACACATATATTTATGTATGTA [CACACA_site1509] | 10.48 ± 0.099
AATACATAATAACATGTACACACATTCTTCTATAAA [CACACA_site9344] | 7.96 ± 0.46
AAAAAAAACGAACACACACACATACAAAATCTATAT [CACACA_site6795] | 7.81 ± 0.61
TTAAAAGAATATAATGCACACATTATTTTATTTTAT [CACACA_site3772] | 10.9 ± 0.73
TACCCACGTATATATATACACACTAATATACACCCA [CACACA_site9381] | 8.13 ± 0.45
AAAAGATTTATACATACACACATATTATAGTCACAT [CACACA_site7701] | 7.8 ± 0.67
TACACCCTATTTTTATGTACTTATTTGATTTACACA [XGTACX_site8172] | 7.88 ± 0.49
ATATAAATACGGTGTGCACACACATAATATATATAT [CACACA_site2271] | 9.52 ± 0.26
CAAGAAAATGGACACACACACATATATATATATATA [CACACA_site6010] | 9.39 ± 0.33
CAAATTTAAAAAAAATCACACACAGAAAAAAAAAAA [CACACA_site8728] | 8.09 ± 0.79
TTTGTTTTAAATATTATACACACGTAAAAGTAGAAT [CACACA_site214] | 8.21 ± 0.42
GGAAACCTTTTTTTTACACACAATATATTAATACTT [CACACA_site1403] | 7.86 ± 0.67
GTGTAATTATCAGCATAAATATGGTACATACATAAA [CACACA_negctrl_site323] | 7.97 ± 0.39
TGTATACGCATATGTACACACATATATATGTATATG [CACACA_site3087] | 7.89 ± 0.23
